How the values were obtained:
[1] = system: hESCs maintained on feeders; hESC-differentiated EBs; assay: Small molecule treatment of hESCs on feeder cells / conditioned media or of embryoid bodies; type: cell-based, human; conditions: EBs or feeder conditions
From the text: In order to achieve uniformly conversion of pluripotent hESCs to a lineage-specific fate, I have used the defined culture system to screen the differentiation inducing effect of a variety of small molecules and growth factors on the pluripotent state of hESCs. […] (FIGS. 1-5). Similarly, the defined platform renders NAM sufficient to induce the specification of cardiomesoderm direct from the pluripotent state of hESCs by promoting the expression of the earliest cardiac-specific transcription factor Csx/Nkx2.5 and triggering progression to cardiac precursors and beating cardiomyocytes efficiently (FIGS. 1-3).

undifferentiated hESCs = assay: NAM induction of undifferentiated hESCs maintained in the defined culture (cardiac induction); type: cell-based, human
From the text: In order to achieve uniformly conversion of pluripotent hESCs to a lineage-specific fate, I have used the defined culture system to screen the differentiation inducing effect of a variety of small molecules and growth factors on the pluripotent state of hESCs. […] (FIGS. 1-5). […] (FIGS. 1-3).
(Stage 1—Human Cardiomesodermal Cells) (FIGS. 1; 2a, b). […] (FIGS. 1; 3a). […] (FIGS. 1, 3b). […] (FIG. 3b). […] (FIG. 3c). Cardiac specific transcription factor (Csx) Nkx2.5 is an evolutionally conserved homeobox transcription factor indispensable for normal cardiac development. The onset and pattern of early Nkx2.5 expression roughly coincide with the timing and area of cardiac specification, and Nkx2.5 gene continues to be expressed through development in the heart. Expression of Nkx2.5 is the earliest marker for heart precursor cells in all vertebrates so far examined and is essential for proper cardiac septation and formation/maturation of electrical conduction system.

## NC(=O)c1cccnc1 [NAM, nicotinamide]
[1]
  cardiac induction when applied to EBs or hESCs on feeder cells / conditioned media: not sufficient
Undifferentiated hESCs; NAM (10 mM), defined culture
  expression of cardiac marker Csx/Nkx2.5: began expressing the earliest marker for heart precursor, Csx/Nkx2.5
Undifferentiated hESCs; NAM-induced cardiomyocytes
  retention of strong contractility of the cardiomyocytes: over 3 months

Reference: US9428731B2, “Technologies, methods, and products of small molecule directed tissue and organ regeneration from human pluripotent stem cells” (San Diego Regenerative Medicine Institute, priority 2010, dated 2016)
